Data as given in PubChem BioAssay AID1460 (National Center for Advancing Translational Sciences (NCATS), 2008).
Hit rate of the full screen: of about 270,000 compounds, about 5,800 (2.1%) were called active. Inconclusive means that the source gave no clear call. Such entries were picked first, then a sample of the others. The call rests on the fitted dose curve; in most records, active means well fitted inhibition curve with a large enough effect; inconclusive means small, poorly fitted or top-dose-only effect; inactive means flat fitted curve, though single readings scatter. A potency beside an inconclusive call is a rough fit, not a confirmed value.
Further: nearly all actives have a fitted effect of over 55% in size.
On the % scale 0 is the no-effect control and ±100 the full control effect; potency means the concentration at half of the fitted maximal effect; tags describe the fitted curve by direction and shape.

These molecules were tested against Microtubule-associated protein tau (Homo sapiens) (UniProt P10636) (assay: qHTS for Inhibitors of Tau Fibril Formation, Thioflavin T Binding). Conditions: recombinant tau K18 P301L (four-repeat tau fragment), heparin-induced fibrillization, ThT fluorescence; series mostly up to 57.4 µM; activity, negative = inhibition: at the top concentration.
Sequence of UniProt P10636 (P10636 whole entry, looked up, the tested form may be a part): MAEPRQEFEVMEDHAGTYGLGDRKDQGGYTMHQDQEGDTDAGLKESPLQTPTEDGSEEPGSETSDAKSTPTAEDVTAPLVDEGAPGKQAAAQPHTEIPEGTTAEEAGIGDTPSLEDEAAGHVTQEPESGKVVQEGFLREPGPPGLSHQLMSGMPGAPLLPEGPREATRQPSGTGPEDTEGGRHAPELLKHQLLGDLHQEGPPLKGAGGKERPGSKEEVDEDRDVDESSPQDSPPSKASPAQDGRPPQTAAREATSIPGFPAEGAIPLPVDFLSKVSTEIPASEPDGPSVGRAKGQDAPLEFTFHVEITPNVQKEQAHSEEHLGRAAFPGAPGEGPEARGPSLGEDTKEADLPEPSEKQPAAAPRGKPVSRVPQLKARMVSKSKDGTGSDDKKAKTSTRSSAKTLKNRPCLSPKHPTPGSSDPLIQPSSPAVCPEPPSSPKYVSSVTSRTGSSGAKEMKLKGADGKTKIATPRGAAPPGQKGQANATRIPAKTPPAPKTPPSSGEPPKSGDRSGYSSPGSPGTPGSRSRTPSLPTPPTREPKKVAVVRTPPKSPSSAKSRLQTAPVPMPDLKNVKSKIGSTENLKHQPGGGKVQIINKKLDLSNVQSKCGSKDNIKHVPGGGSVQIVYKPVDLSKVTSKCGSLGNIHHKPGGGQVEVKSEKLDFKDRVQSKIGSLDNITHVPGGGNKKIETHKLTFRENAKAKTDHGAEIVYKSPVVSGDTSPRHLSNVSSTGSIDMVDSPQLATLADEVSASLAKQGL
Procedure, shortened: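 Heparin-induced fibrillization of the P301L-mutant K18 repeat-domain fragment of human tau was followed by ThT binding in quantitative high-throughput format.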
For `CCC1=NN(C(=O)C(=O)Nc2ccccc2OC)C(O)(C(F)(F)F)C1` (stereo not given), the Potency was inconclusive: 11.2 µM [inhibitor, partial curve].
With `CC1(C)CC(=O)C2=C(C1)Nc1ccccc1N=C2` the Potency was inconclusive: 22.4 µM [inhibitor, partial curve].
With `N#C/C(=C/c1ccc(N2CCOCC2)o1)c1ccc(Br)cc1` the Potency was active: 14.1 µM.
With `Cn1c(=O)c2c(nc(SCC(=O)Nc3ccccc3N3CCCCC3)n2C)n(C)c1=O` the Potency was inconclusive: 39.8 µM [inhibitor, partial curve].
With `CCC(=O)Nc1nc(-c2ccc3c(c2)OCCO3)cs1` the Potency was inconclusive: 15.8 µM [inhibitor, single point].
In the case of `CCN(CC)c1cc(C)c2cc(NC(=O)/C=C/c3ccc(C)cc3)ccc2n1`, the Potency is reported as inconclusive: 0.398 µM [inhibitor, full curve].
With `CCN1CCN(C(=O)C(C)Nc2ccc(OC)cc2OC)CC1` (stereo not given) the Potency was inconclusive: 28.2 µM [inhibitor, single point].
`COC(=O)/C=C/c1cc(O)ccc1O` was tested, and the Potency was inconclusive: 25.1 µM [inhibitor, single point].
`C=CCN1C(=O)C2(c3ccccc31)C1CCCC=C1C(C#N)=C(N)C2(C#N)C#N` (stereo not given) was tested, and the Potency was inconclusive: 14.1 µM [inhibitor, partial curve].
With `COc1ccc(CN(C)Cc2nc3scc(-c4ccccc4)c3c(=O)[nH]2)cc1OC` the “activity, negative = inhibition” value was inactive: -5.51%.
For `Cc1ccc(CN(CC2CCCO2)C(=O)CN2C(=O)C(C(C)C)Oc3ccccc32)o1` (stereo not given), the “activity, negative = inhibition” value was inactive: -15.5%.
For `COC(=O)c1scc(S(=O)(=O)C(C)C)c1N/N=C(\C#N)C(=O)c1ccc(Cl)cc1`, the Potency was inconclusive: 20 µM [inhibitor, partial curve].
With `Cc1cc(C(F)(F)F)nn1Cc1n[nH]c(=S)n1Cc1ccccc1` the “activity, negative = inhibition” value was inactive: -6.38%.
In the case of `Cc1[nH]c2ccccc2c1/C=N/Nc1nncn1N`, the Potency is reported as active: 14.1 µM.
With `Cc1ccc(-c2nc(CS(=O)CC(=O)N3CCN(c4ccccc4)CC3)c(C)o2)cc1` (stereo not given) the Potency was inconclusive: 28.2 µM [inhibitor, single point].
`CCCOc1cccc(-c2cc(C(=O)NNC(=S)NCC)c3ccccc3n2)c1` was tested, and the Potency was inconclusive: 25.1 µM [inhibitor, single point].
In the case of `Cc1ccc(C)c(-c2ccc(C(=O)O)o2)c1`, the “activity, negative = inhibition” value is reported as inactive: -17% [at 126 µM].
With `Cc1ccc(CSCC(=O)N2CCN(c3cc(Cl)ccc3C)CC2)cc1` the “activity, negative = inhibition” value was inactive: -8.37%.
`Cc1oc(-c2ccc3c(c2)OCCO3)cc1C(=O)NC(Cc1ccccc1)C(=O)O` (stereo not given) was tested, and the Potency was inconclusive: 35.5 µM [inhibitor, partial curve].
`CCCOC(=O)C1[C@H]2C(=O)N(Cc3ccco3)C[C@]23C=C[C@H]1O3` (stereo not given in full) was tested, and the Potency was inconclusive: 20 µM [inhibitor, single point].
In the case of `CC(C)COc1cccc(C(=O)NC(=S)NCc2cccnc2)c1`, the Potency is reported as inconclusive: 39.8 µM [inhibitor, single point].
With `Cc1cccc(C)c1-n1c(C)cc(/C=N/NC(=O)CSc2ncccn2)c1C` the Potency was inconclusive: 10 µM [inhibitor, partial curve].
`CCn1c(C)nc2cc(C(=O)NNC(=S)NC(=O)c3ccc(OC)cc3)ccc21` was tested, and the Potency was inconclusive: 3.55 µM [inhibitor, full curve].
For `O=C(N/N=C/c1cc([N+](=O)[O-])ccc1Cl)c1ccc2nc[nH]c2c1`, the Potency was inconclusive: 15.8 µM [inhibitor, partial curve].
For `CCCNC(=O)CSc1nnc(-c2ccco2)n1C`, the “activity, negative = inhibition” value was inactive: -3.78%.
For `CCOc1cc(/C=C/c2ccc3cccc([N+](=O)[O-])c3n2)cc(Cl)c1O`, the Potency was inconclusive: 2.51 µM [inhibitor, partial curve].
`COCC(C)OC(=O)C(C#N)c1nc2ccccc2nc1N1CCN(Cc2ccccc2)CC1` (stereo not given) was tested, and the Potency was inconclusive: 25.1 µM [inhibitor, partial curve].
In the case of `CCOc1cc(/C=N/NC(=O)CNc2cccc(C)c2)ccc1OC(=O)c1ccccc1`, the Potency is reported as inconclusive: 17.8 µM [inhibitor, partial curve].
In the case of `Cc1cccc(C)c1Nc1c(-c2ccc(Cl)s2)nc2ncccn12`, the Potency is reported as inconclusive: 22.4 µM [inhibitor, partial curve].
With `CCOc1ccc2c(c1)C(C)=CC(C)(C)N2C(=O)Nc1ccccc1` the Potency was active: 28.2 µM.
`COc1ccccc1CNC(=O)c1ccc2c(c1)sc1nc(-c3ccc(F)cc3)cn12` was tested, and the “activity, negative = inhibition” value was inactive: -6.2%.
In the case of `Cc1cc(C)c2nc(-c3ccccn3)cc(C(=O)Nc3cc(C)on3)c2c1`, the Potency is reported as inconclusive: 2.24 µM [inhibitor, partial curve, poor fit].
With `CCC(=O)Nc1cc(=O)[nH]c2ncnn12` the “activity, negative = inhibition” value was inactive: -11.5%.
With `O=[N+]([O-])c1ccc(-c2ncc(-c3ccc(Br)cc3)o2)cc1` the Potency was inconclusive: 1.41 µM [inhibitor, full curve].
`CC1CCN(C(=O)COC(=O)c2cc3ccccc3cc2O)CC1` was tested, and the Potency was inconclusive: 14.1 µM [inhibitor, partial curve, poor fit].
With `COCC(C)N=C1NN=C(c2ccc(NC(C)=O)cc2)CS1` (stereo not given) the Potency was inconclusive: 28.2 µM [inhibitor, single point].
In the case of `CC(C)C(CCNC(=O)CC(Cc1ccccc1)c1ccco1)c1ccco1` (stereo not given), the Potency is reported as inconclusive: 22.4 µM [inhibitor, single point].
In the case of `CSc1nnc2c3cc(C)ccc3n(Cc3ccccc3)c2n1`, the Potency is reported as inconclusive: 14.1 µM [inhibitor, partial curve].
In the case of `COc1cccc(-c2cc(=O)c3ccccc3o2)c1N`, the Potency is reported as active: 15.8 µM.
`Cc1cccc(N=c2c([N+](=O)[O-])nn(-c3ccc(Cl)cc3)n2O)c1` was tested, and the Potency was inconclusive: 12.6 µM [inhibitor, partial curve].
In the case of `Cc1[nH]c2ccccc2c1C(=O)C(=O)NC1CC(=O)N(c2cccc(F)c2)C1` (stereo not given), the “activity, negative = inhibition” value is reported as inactive: 1.46%.
For `Cc1ccc2oc(C(=O)N(Cc3ccccc3F)C3CCS(=O)(=O)C3)c(C)c2c1` (stereo not given), the “activity, negative = inhibition” value was inactive: -14.7%.
`Cc1nnc(SCC(=O)Nc2ccc(-c3nc4ccccc4s3)cc2)s1` was tested, and the Potency was inconclusive: 0.0891 µM [inhibitor, full curve, poor fit].
`Cc1cc(NC(=O)Cc2cccs2)no1` was tested, and the Potency was inconclusive: 31.6 µM [inhibitor, partial curve].
With `O=C(NCC1CCCO1)C(c1cccs1)N(Cc1ccccc1Cl)C(=O)c1ccc(-c2ccccc2)[nH]1` (stereo not given) the “activity, negative = inhibition” value was inactive: -10.8%.
In the case of `CCOc1ccc(CC(=O)Nc2nnc3n2CCS3)cc1`, the “activity, negative = inhibition” value is reported as inactive: 5.67%.
In the case of `CCCC(=O)N/C(N)=N/c1nc(C)c2cc(C)ccc2n1`, the “activity, negative = inhibition” value is reported as inactive: -17.4%.
`Cc1[nH]c2ccccc2c1SCc1ccccc1` was tested, and the Potency was inconclusive: 25.1 µM [inhibitor, single point].
For `O=C(CSc1cn(CC(=O)N2CCCCCC2)c2ccccc12)Nc1ccccc1F`, the Potency was inconclusive: 17.8 µM [inhibitor, partial curve].
With `Cc1cc(C(F)(F)F)n(-c2nc(C(=O)N/N=C/c3ccc(F)cc3)cs2)n1` the Potency was inconclusive: 2.82 µM [inhibitor, full curve].
With `COC(=O)c1scc(-c2ccc(C)cc2)c1S(=O)(=O)Nc1cccc(C(F)(F)F)c1` the “activity, negative = inhibition” value was inactive: 3.67%.
With `O=CN(/C=C1\Sc2ccccc2C1=O)Cc1ccccc1` the Potency was inconclusive: 20 µM [inhibitor, partial curve].
With `O=[N+]([O-])c1cc(Cl)ccc1NCCNS(=O)(=O)c1ccccc1` the Potency was active: 12.6 µM.
In the case of `NC(=O)CC(NC(=O)Cc1cccc2ccccc12)c1ccc(NCCc2ccc(F)cc2)c([N+](=O)[O-])c1` (stereo not given), the Potency is reported as inconclusive: 25.1 µM [inhibitor, partial curve].
For `CCOC(=O)C1(CCc2ccccc2)CCN(Cc2nccn2CC)CC1`, the “activity, negative = inhibition” value was inactive: 3.4%.
In the case of `Cc1cc(C)n2nc(SCc3nnc(SCc4ccccc4Cl)s3)nc2n1`, the “activity, negative = inhibition” value is reported as inactive: -13.4%.
For `COc1ccc(Nc2nc(N)nc(CN3CCN(c4ccccn4)CC3)n2)cc1`, the Potency was inconclusive: 22.4 µM [inhibitor, partial curve, poor fit].
For `CCCn1c(O)c(N=NC(=O)c2ccco2)c2ccccc21`, the Potency was inconclusive: 25.1 µM [inhibitor, partial curve].
With `CCCN1C(=O)/C(=C/c2ccc(N3CCCC3)c(C)c2)NC1=S` the Potency was inconclusive: 10 µM [inhibitor, partial curve].
`COc1cccc(/C=N/NC(=O)C(=O)N/N=C/c2cccc(OC)c2O)c1O` was tested, and the Potency was inconclusive: 2.24 µM [inhibitor, full curve, poor fit].
`Cc1cc(O)c(/C=N/c2ccccn2)c(=O)o1` was tested, and the Potency was inconclusive: 20 µM [inhibitor, single point].
In the case of `COc1ccc(-c2nc(-c3ccccc3)c(-c3ccccc3)[nH]2)cc1Br`, the Potency is reported as inconclusive: 3.55 µM [inhibitor, full curve].
For `Oc1c(I)cc(Cl)c2cccnc12`, the Potency was inconclusive: 31.6 µM [inhibitor, partial curve].
`Cc1ccc(-c2nnc(SCC(=O)N3CCc4ccccc43)o2)cc1` was tested, and the “activity, negative = inhibition” value was inactive: -18.2%.
In the case of `C=C(C)COc1ccc(-c2[nH]ncc2-c2ccc(Br)cc2)c(O)c1`, the Potency is reported as inconclusive: 35.5 µM [inhibitor, single point].
With `Cc1c(C(=O)NCc2ccc(N(C)C)cc2)oc2c1-c1nn(Cc3cccc(Cl)c3)cc1CC2` the Potency was inconclusive: 12.6 µM [inhibitor, partial curve].
With `CCCCn1c2nc3ccccc3nc2c2c(=O)n(-c3ccccc3)cnc21` the Potency was inconclusive: 12.6 µM [inhibitor, partial curve].
`COCCN1Cc2cccc(C(=O)Nc3ccc(C)cc3C)c2C1=O` was tested, and the “activity, negative = inhibition” value was inactive: -8.04%.
In the case of `CCOc1cc(/C=C(\C#N)c2nc(-c3cccs3)c(NC(C)=O)s2)ccc1O`, the Potency is reported as inconclusive: 3.55 µM [inhibitor, partial curve].
In the case of `O=C(COC(=O)c1ccc2c(c1)OCO2)Nc1ncc(Cl)cc1Cl`, the “activity, negative = inhibition” value is reported as inactive: -3.43%.
